# Measured values published in PubChem BioAssay AID624296 (National Center for Advancing Translational Sciences (NCATS), 2012).
# Among all 350,000 compounds or so, about 9,900 (2.8%) were called active. Inconclusive means that the source gave no clear call. Such entries were picked first, then a sample of the others. The call rests on the fitted dose curve; in most records, active means well fitted activation curve with a large enough effect; inconclusive means small, poorly fitted or top-dose-only effect; inactive means no such curve, though single readings can be large or run the other way. No potency is given beside an inconclusive call; the fits are too rough.
# Test: A quantitative high throughput screen for small molecules that induce DNA re-replication in MCF 10a normal breast cells. Further: nearly all actives have a fitted effect of over 50% in size. On activity, positive = re-replication: % of control where 0% means no effect.
# Conditions: MCF 10A DNA re-replication, Hoechst nuclear intensity, 48 h; activity, positive = re-replication: at 46.1 µM (top of the series)
# Potency means the concentration at half of the fitted maximal effect; tags describe the fitted curve by direction and shape.
Compound,Potency,"activity, positive = re-replication"
Cc1ccc(N2C(=O)CSC2c2ccccn2)cc1Cl (centres undefined),"inconclusive [activator, single point]",
Clc1ccc(CNc2ccc(N3CCN(Cc4ccccc4)CC3)cc2)cc1,"inconclusive [activator, partial curve, poor fit]",
c1ccc2[nH]c(-c3ccncc3)nc2c1,,inactive: -30.6%
C[C@H](CCC(=O)OCc1cn(CC(=O)c2ccc(O)cc2)nn1)C1CC[C@H]2[C@@H]3CC[C@@H]4C[C@H](O)CC[C@]4(C)[C@H]3C[C@H](O)[C@]12C (some centres undefined),"inconclusive [activator, single point]",
Cc1cccc(N=Nc2ccc(O)c3ncccc23)c1,"inconclusive [activator, single point]",
COc1ccc(N(CC(=O)Nc2ccccc2Cl)S(=O)(=O)c2ccc(C)cc2)cc1OC,"inconclusive [activator, single point]",
C=CCNc1oc(-c2ccc(OC)cc2)nc1C#N,"inconclusive [activator, partial curve, poor fit]",
CN(Cc1ccccc1)C(=O)COC(=O)c1cc(S(=O)(=O)N(C)C)ccc1N1CCCC1,"inconclusive [activator, full curve, poor fit]",
CC[C@]12c3[nH]c4cc(-c5ccco5)ccc4c3CCN1C(=O)[C@@H](CC(=O)NCCCn1ccnc1)C[C@@H]2C(=O)N1CCN(C(=O)C2CC2)CC1,,inactive: -9.76%
CC1CCN(C(=O)c2ccccc2NC(=O)c2cccs2)CC1,,inactive: 6.52%
Cc1cc(OCc2nc(N)nc(N)c2-c2ccc(Cl)c(Cl)c2)ccc1[N+](=O)[O-],"inconclusive [activator, full curve, poor fit]",
CC(=O)Nc1ccc(C(=O)Nc2ccc(S(=O)(=O)Nc3nccc(C)n3)cc2)cc1,,inactive: -2.68%
Nc1ncc(Br)cc1S(=O)(=O)NCCC(=O)Nc1cccc(Cl)c1,"inconclusive [activator, single point]",
O=C(COc1ccc(S(=O)(=O)N2CCOCC2)cc1)NCCN1CCOCC1,,inactive: -5.67%
COc1cc(C(=O)Sc2ccc(Cl)cc2)cc(OC)c1OC,"inconclusive [activator, single point]",
O=C(Nc1cccn2ncnc12)c1cccc(C(F)(F)F)c1,,inactive: 2.8%
COc1ccc(Nc2nc(N)c([N+](=O)[O-])c(N3CCCC3)n2)cc1,"inconclusive [activator, partial curve, poor fit]",
CN(Cc1ccc(OC(F)F)cc1)C(=O)c1cccc(S(=O)(=O)N2CCN(Cc3ccccc3)CC2)c1,,inactive: -16.4%
CCc1ccc2nc(N(CCCN(C)C)C(=O)c3ccc(C(=O)c4ccccc4)cc3)sc2c1,"inconclusive [activator, single point]",
O=C(OCc1ccccc1)c1ccc(NCc2cc(O)ccc2O)cc1,"inconclusive [activator, full curve]",
O=C(CC(SCc1ccco1)c1ccc(O)cc1)c1cccs1 (centres undefined),"inconclusive [activator, partial curve, poor fit]",
CCOc1ccccc1-c1c2cc(O)c(=O)cc-2oc2cc(O)c(O)cc12,,inactive: 11.3%
CCOc1ccc2nc(NC(=O)C3(C)CC3(Br)Br)sc2c1 (centres undefined),"inconclusive [activator, single point]",

Compound,Potency,"activity, positive = re-replication"
CCN1C[C@@H]2[C@@H]3C(=O)N(C)C(=O)[C@@H]3[C@](Cc3ccccc3)(C1=O)N2C(=O)c1ccc(C(C)(C)C)cc1,"inconclusive [activator, partial curve, poor fit]",
CC(=O)Nc1ccc(C(=O)OCC(=O)NCc2ccccc2)cc1,"inconclusive [activator, partial curve, poor fit]",
Cc1c(C(=O)Nc2cnccn2)oc2ccccc12,"inconclusive [activator, single point]",
COc1ccc(-c2noc(CCC(=O)N3CCN(c4ccccc4F)CC3)n2)cc1,"inconclusive [activator, full curve, poor fit]",
Cc1ccc(C)c(NC(=O)CN(C)C(=O)CN2C(=O)C3CCCCC3C2=O)c1 (centres undefined),,inactive: 7.13%
Cc1ccccc1Cn1ccc(NC(=O)c2cnn3c2NC(c2ccccc2)CC3C(F)(F)F)n1 (centres undefined),,inactive: 26.8%
CCN1CCN(CCCOc2ccc(Cl)cc2Br)CC1,"inconclusive [activator, single point]",
CCN(C[C@H]1N[C@@](C)(C(=O)OC)[C@H]2C(=O)N(C)C(=O)[C@@H]12)C(=O)C1CCCCC1,,inactive: -5.48%
CC(=O)CSc1nc(N)c(C#N)c(-c2cccs2)c1C#N,"inconclusive [activator, single point]",
COc1ccc(Nc2nc(N3CCCC3)nc(N3CCOCC3)n2)cc1,,inactive: 5.89%
COc1nc(Cc2ccc(Cl)cc2)nc2ccccc12,,inactive: -0.261%
CC(C)Oc1cccc(C(=O)NC(=S)Nc2ccc3c4c(cccc24)CC3)c1,"inconclusive [activator, full curve, poor fit]",
CCN(CC)S(=O)(=O)c1cc(NC(=O)C(C)OC(=O)c2[nH]c(C)c(C(C)=O)c2C)ccc1C (centres undefined),"inconclusive [activator, single point]",
COc1ccc(-c2csc(NC(=O)CN3C(=O)CCC3=O)n2)cc1,"inconclusive [activator, single point]",
CCCCc1nnc(NC(=O)c2nc3nccc(C)n3n2)s1,,inactive: -32.8%
Cc1cc(C)n2c(SCC(O)=C(C#N)c3nc4ccccc4[nH]3)nnc2n1,,inactive: 6.98%
O=C(C1=C[C@@H](c2coc3ccccc3c2=O)C[C@@H](OCc2ccc(CO)cc2)O1)N1CCN(Cc2ccc3c(c2)OCO3)CC1,,inactive: -4.48%
COC(c1ccc(Cl)cc1)(c1ccc(Cl)cc1)C(Oc1nc(C)cc(C)n1)C(=O)O (centres undefined),,inactive: 2.06%
CNC(=S)N/N=C/c1cn(Cc2ccc(C)cc2)c2ccccc12,"inconclusive [activator, single point]",
CC12CCC(C/C1=N/O)C2(C)CBr (centres undefined),,inactive: -2.45%
CCCCNC(=S)NNC(=O)c1ccc(Br)o1,"inconclusive [activator, partial curve, poor fit]",
COc1ccc(CCC(=O)Nc2cc(Cl)ccc2OC)cc1,"inconclusive [activator, partial curve, poor fit]",
Cc1cccc(N2C(=O)CN=C2Nc2nc(C)cc(C)n2)c1,,inactive: -10.4%

Compound,Potency,"activity, positive = re-replication"
O=C(CSc1nc2ccccc2c(=O)n1CCCN1CCOCC1)Nc1ccc(Br)cc1,"inconclusive [activator, partial curve, poor fit]",
CCN1C(=O)c2cccc3c(S(=O)(=O)Nc4nc(C)cs4)ccc1c23,active: 14.6 µM,
Cn1c2c(c(=O)[nH]c1=O)C(c1cccc(O)c1)C1=C(N2)c2ccccc2C1=O (centres undefined),"inconclusive [activator, partial curve]",
COc1ccc(-n2nc3ccc(N)cc3n2)cc1Cl,"inconclusive [activator, single point]",
O=C(NCCCn1ccnc1)c1sc2cccc(F)c2c1Cl,"inconclusive [activator, partial curve]",
COc1ccccc1S(=O)(=O)Cc1ccc(C(=O)N2CCN(c3ccccn3)CC2)o1,"inconclusive [activator, single point]",
CC1(C)CC(n2c(NCCO)nc3c(c2=O)C2(CCCC2)Cc2ccccc2-3)CCO1 (centres undefined),,inactive: -2.01%
O=C(Nc1ccccn1)c1ccccc1,,inactive: -27.3%
CN(C(=O)c1cccc(NC(=O)Cc2cccc(NC(=O)C3CCCN(C(=O)CCc4ccccc4)C3)c2)c1)C1CCC1 (centres undefined),"inconclusive [activator, single point]",
CC(=O)Oc1cccc(/C=c2\sc3nc(-c4ccco4)nn3c2=O)c1,"inconclusive [activator, single point]",
O=C(CNc1n[nH]c(=O)[nH]c1=O)N/N=C/C1CC=CCC1 (centres undefined),,inactive: 1.98%
CC(C)N1C(=O)/C(=C\c2nc3ccccc3c(=O)[nH]2)c2ccccc21,"inconclusive [activator, single point]",
Cc1ccc(C2(c3noc(CN4CCC(c5ccncc5)CC4)n3)CCCC2)cc1,,inactive: 16.9%
CCOc1cc(/C=N/O)ccc1OCC(=O)Nc1cccc(C)c1,"inconclusive [activator, partial curve, poor fit]",
O=C(N/N=C/c1ccc(OC(F)F)cc1OC(F)F)c1cccc(S(=O)(=O)N2CCOCC2)c1,,inactive: -0.52%
COC(=O)c1sc(NC(=O)c2c(C)noc2C)nc1C,,inactive: -32.2%
Cc1ccc(S(=O)(=O)N(C)C)cc1NC(=O)COC(=O)C1CC(=O)N(c2ccc3c(c2)OCCO3)C1 (centres undefined),,inactive: 2.13%
CCOC(=O)CSC1=C(C#N)C(c2ccccc2OCC)C(C#N)C(=O)N1 (centres undefined),"inconclusive [activator, single point]",
CC(Sc1nc(-c2ccc(F)cc2)cs1)C(=O)N1c2ccccc2CC1C (centres undefined),active: 20.6 µM,
COc1cc2c(cc1OC)C[N+](C)(C)CC2,"inconclusive [activator, full curve, poor fit]",
COC(=O)C(CCCCN1C(=O)C2C3C=CC(C3)C2C1=O)N1C(=O)C2C3C=CC(C3)C2C1=O (centres undefined),,inactive: 4.51%
COc1ccc(NC(=O)C(NC(=O)Cc2cccs2)c2ccc(C)cc2)cc1 (centres undefined),"inconclusive [activator, full curve, poor fit]",
CCn1c(=O)n(CC)c2cc(N3CCCC3)c(NC(=O)c3ccc(C)c([N+](=O)[O-])c3)cc21,,inactive: 10.9%
